Measured values from the supplement of paper PMC3334620.
In all, about 33,000 sequences were measured (“E-score (-0.5 to 0.5)”: median about -0.043, highest 2% from about 0.37 on). This is one part of the list.

What follows are sequences tested against T1, Upc2 (UniProt Q12151) (assay: PBM E-score (8-mer binding enrichment) (E-score (-0.5 to 0.5)); higher = stronger / more preferred TF binding; most listed sequences are background and not binding sites). Settings: protein concentration: 200 nM; construct: GST-full length.
T1 sequence: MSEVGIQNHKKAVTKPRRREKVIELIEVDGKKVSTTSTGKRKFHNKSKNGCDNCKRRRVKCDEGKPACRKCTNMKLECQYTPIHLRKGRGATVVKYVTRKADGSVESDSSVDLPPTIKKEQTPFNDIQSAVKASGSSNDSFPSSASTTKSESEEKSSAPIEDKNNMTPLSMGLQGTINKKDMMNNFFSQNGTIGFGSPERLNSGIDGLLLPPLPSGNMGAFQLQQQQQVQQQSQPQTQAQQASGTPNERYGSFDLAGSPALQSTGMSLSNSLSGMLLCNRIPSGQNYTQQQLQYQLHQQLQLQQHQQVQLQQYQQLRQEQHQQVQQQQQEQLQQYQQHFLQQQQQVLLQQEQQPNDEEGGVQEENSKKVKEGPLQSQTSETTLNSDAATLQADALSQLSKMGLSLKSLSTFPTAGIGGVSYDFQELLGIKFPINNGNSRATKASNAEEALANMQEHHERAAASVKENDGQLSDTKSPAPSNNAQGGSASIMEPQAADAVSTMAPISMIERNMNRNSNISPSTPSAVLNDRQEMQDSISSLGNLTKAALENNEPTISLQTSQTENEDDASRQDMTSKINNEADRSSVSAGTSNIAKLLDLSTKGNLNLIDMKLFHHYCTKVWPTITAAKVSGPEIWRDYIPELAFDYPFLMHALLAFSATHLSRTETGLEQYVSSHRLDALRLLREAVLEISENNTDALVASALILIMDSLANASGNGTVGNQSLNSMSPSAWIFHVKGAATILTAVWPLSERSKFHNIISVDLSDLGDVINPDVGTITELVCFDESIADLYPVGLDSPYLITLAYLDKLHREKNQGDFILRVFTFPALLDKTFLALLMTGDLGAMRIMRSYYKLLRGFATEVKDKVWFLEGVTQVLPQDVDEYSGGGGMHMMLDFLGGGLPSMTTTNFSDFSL
In short: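 E-scores (a modified Wilcoxon-Mann-Whitney statistic) were assigned by the Universal PBM Analysis Suite to every ungapped eight-base word pooled with its reverse complement. The input came from universal all-10-mer Agilent arrays made double-stranded by primer extension and probed with GST-tagged yeast transcription factors at about 100-200 nM. Fluorescent anti-GST detected bound protein, and masliner normalised the scans.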

Sequence | PBM E-score
ATAACGGC | 0.123
ATTGCTTA | -0.0541
ACCAGAAT | -0.00733
ACACATCG | 0.093
CATAAACG | 0.462
GGCGTCAA | -0.153
ACCCGCAT | 0.0404
ATTTTGTG | -0.0311
CCACAGCG | -0.302
GCCCGCCA | -0.144
CAGCTTAG | -0.256
ATTTGCAC | -0.0529
ATACTCAC | 0.0254
CGTACATC | 0.352
ATGAGGGG | -0.299
GAGTAAGC | -0.176
CACAATGG | -0.089
CATCATTA | -0.0416
TTATATAA | 0.0964
GAGCATGC | -0.248
AGCGGCGG | 0.101
AGCATATA | 0.0134
CGCCCCAG | -0.162
CCTTGATC | -0.241
ACATGAAG | -0.15

Sequence | PBM E-score
CCAACTGC | -0.118
ACAGCGGA | -0.212
AAGCGGGA | -0.0154
CACCGAGA | -0.124
AACCGCAC | -0.00368
CTCTACAA | -0.0244
GGGTCAGA | -0.0313
AGATACAA | 0.0173
ACGGGGCT | 0.0759
CTAATCAG | -0.0725
GTTGATTA | 0.0537
CAGCACAA | 0.0156
ACAAGAAC | 0.152
CCGCCATC | -0.248
TATCTACA | -0.0779
GAGGTAAC | -0.0391
CGCGGCCA | -0.215
GTAGCTTA | 0.112
CATCCTCC | 0.0461
AGAACTTG | -0.0432
AATGGCTG | -0.0827
AAGCCAGC | -0.115
CTTCTATC | -0.158
CCGGCCTA | -0.0726
CAACCCTA | -0.0238

Sequence | PBM E-score
ATAGTCGC | 0.093
CGTGGCTC | -0.0748
ATGTGAGA | -0.26
ATTACTCG | 0.151
ATACTGTG | 0.0426
ATCATTAC | -0.00039
CCGCATTC | -0.132
ACCACTCA | -0.0387
CCTCGCCC | 0.127
AGAGTTTC | -0.154
GAACCCTA | 0.042
CAGGAGTA | -0.157
CGGATTTC | 0.00143
TCAGGGGA | -0.218
AAATCTCG | 0.21
AGTCCCAT | -0.163
TCTGTCCA | -0.242
CAGTGAGG | -0.344
GGTTCGAA | 0.0921
CCTCTCAA | -0.206
CCCCGCAA | 0.0809
CCACCTTC | -0.0912
ATGTGCGC | -0.0671
CAGTGGAG | -0.16
CGGCTTCA | -0.0262

Sequence | PBM E-score
AGGCGTAG | -0.272
CGCTCGGC | 0.0396
CCCGACCA | -0.0401
ACAAGCAG | -0.19
CACTTGCG | -0.173
ACGGACGT | 0.116
CAATTGCA | -0.0211
GATGAGCA | -0.186
AATAGAAA | -0.156
CACAAAGC | -0.142
GTCCGCAC | -0.113
ACGTTACA | 0.0891
AACAGCGG | -0.068
TCTCGAAA | 0.159
CGGGCTAG | -0.117
GGTGGAAC | 0.184
TGCGGAAA | -0.00475
CACTAGAG | -0.186
AGTCGCGG | -0.0796
ACATATCC | -0.0597
GAGCCTCC | -0.0602
TAGATGCA | 0.033
ACTGTTCC | -0.00914
AAGTCCCG | -0.135
AAATTGTC | -0.0682

Sequence | PBM E-score
ACGAGAAA | 0.349
AGCTTTGC | -0.0852
AAGTTAAT | -0.0268
ACCCAACT | 0.0275
AACCCCGC | -0.0131
AATGCTCG | 0.179
CAAAAACA | 0.0635
AATTGTTA | 0.00213
CAATAAAC | 0.158
CCCTTCCA | -0.32
GATTGAAC | 0.0493
ACGATATC | 0.345
AACGAATC | 0.39
TACATGCA | 0.121
ACCGATCA | 0.0559
ACTTTGCA | 0.0101
CCGTGTTC | 0.0457
TACTCAAA | 0.00677
CCAGCCTA | -0.259
ATTGGTAC | 0.0441
CACTTCTG | -0.309
CATTTTTA | -0.0383
AGCTGCTA | -0.262
CACTAATC | -0.00017
GCTACGAC | 0.379

Sequence | PBM E-score
CATGAGTC | -0.0488
TAGAGCCA | -0.159
AATGAATC | -0.122
CTGGAAAC | 0.139
GCTACACA | -0.138
AACGACTC | 0.401
CAGCGCGC | -0.0787
ACCGGCAG | -0.183
CTATTCCC | -0.346
ATTGGGAA | 0.0278
TGCTTTAA | 0.153
GACGTTCA | 0.0943
GCGGCCCA | -0.129
CTACATTC | -0.127
GGAAAACC | -0.0101
GCCCGTCA | -0.3
CATCCATC | -0.167
GCGTCGAC | -0.0524
GTTCTTGA | 0.12
CCCTTACA | -0.0928
CCGAGTGC | -0.0549
AATCCTGA | -0.098
CATGTTCA | -0.294
ATTAGTAA | 0.0479
ATCGTTCG | 0.384

Sequence | PBM E-score
GAGCCCTA | -0.239
CACGAATC | 0.0313
CGTATACA | 0.474
CCTTGACA | -0.272
CTTTTTGA | -0.112
ACATATCT | -0.0474
ACTTAGCC | -0.227
CGCTGTTA | -0.0569
AATGTGTG | -0.0172
AGTGGGTG | -0.107
AACCCTGG | -0.00894
ATTGTGTA | 0.0951
AGAGTCAG | -0.0459
AGCAGGAG | -0.116
GTGTCGAA | -0.0801
AACAAAGG | -0.201
CCGACTTA | 0.0676
CCACCACA | -0.259
AACCTAAA | 0.134
AGATGATA | -0.113
AGGTACGA | 0.47
GAAGCCAC | -0.0549
